Our source for the binding signal (log2 fold change) values is publication PMC5892938.

The other results are listed elsewhere or left out. At the low end of the ranking, values are background and their order means little.

For the experiment, the target named is GST-SBP-SLBP (stem-loop binding protein) (UniProt Q14493). The experiment is described as follows: targeted RNA Bind-n-Seq.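 Also: DESeq read counts versus GST-SBP nonspecific binding control pulldown.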 The conditions noted are these: RBNS binding buffer: 25 mM Tris pH 7.5, 150 mM KCl, 3 mM MgCl2, 0.1% Tween, 0.5 mg/mL BSA, 1 mM DTT; 27 nM protein, 750 pM RNA pool; temperature not stated; high values mean tight binding.
Regarding “GGUCACGUCUCAAUCAACUCUCUCGAGGGGGGGAAAACCCCUUUGCCCUCAUUCUCAACAGCUCGCAGUCAAG”, the binding signal (log2 fold change) stood at 0.171.
Turning to “GGUCACGUCUCAAUCAACUCAUUCCCAGGAGUUUUCUCCUGUUUAUUCAACAGCUCGCAGUCAAG”, the binding signal (log2 fold change) was -0.0654.
With “GGUCACGUCUCAAUCAACUCAUUUUCAGGAGUUUCCUCCUGCAUACUCAACAGCUCGCAGUCAAG”, the binding signal (log2 fold change) was determined as 0.00561.
“GGUCACGUCUCAAUCAACUCGUCUUCAGGAGUUUUCUCCUGCUAUUUCAACAGCUCGCAGUCAAG”: the binding signal (log2 fold change) is -0.0282.
For “GGUCACGUCUCAAUCAACUCAAUCCCAGGAGUUUUCUCCUGUAAACUCAACAGCUCGCAGUCAAG”, the binding signal (log2 fold change) turned out to be 0.126.
On to “GGUCACGUCUCAAUCAACUCAAUCCCAGGAGUUUCCUCCUGUUAUCUCAACAGCUCGCAGUCAAG”, for which the binding signal (log2 fold change) worked out at 0.0845.
With “GGUCACGUCUCAAUCAACUCUAUUCCCAGGGAAAACCCUGGUUUACUCAACAGCUCGCAGUCAAG”, the binding signal (log2 fold change) came out at 0.219.
For the sequence “GGUCACGUCUCAAUCAACUCUAUCGCAGGAGUUUCCUCCUGGUUUCUCAACAGCUCGCAGUCAAG”, the binding signal (log2 fold change) is -0.00904.
In the case of “GGUCACGUCUCAAUCAACUCUUUCGAGGGGGGGAAAACCCCUUUACCCUCUCAAUCAACAGCUCGCAGUCAAG”, the binding signal (log2 fold change) is 0.258.
Take “GGUCACGUCUCAAUCAACUCUUCGGAGGGGGGGAAAACCCCUUUACCCUCAUCCUCAACAGCUCGCAGUCAAG”: the binding signal (log2 fold change) is -0.311.
Consider “GGUCACGUCUCAAUCAACUCAUCCCCCAGGGAAAGCCCUGGUAAAUUCAACAGCUCGCAGUCAAG”, for which the binding signal (log2 fold change) amounted to 0.114.
Take “GGUCACGUCUCAAUCAACUCUUCGCCCAGGGAAAGCCCUGGUUAAUUCAACAGCUCGCAGUCAAG”: the binding signal (log2 fold change) was determined as 0.0233.
Take “GGUCACGUCUCAAUCAACUCAUCGCCAGGAGUUUCCUCCUGCUUUUUCAACAGCUCGCAGUCAAG”: the binding signal (log2 fold change) was 0.108.
For “GGUCACGUCUCAAUCAACUCUUUUCCCAGGGAAAUCCCUGGCAUUUUCAACAGCUCGCAGUCAAG” the value was 0.0544; for “GGUCACGUCUCAAUCAACUCUAUUCCCAGGGAAAUCCCUGGUAUUCUCAACAGCUCGCAGUCAAG”, 0.0945; for “GGUCACGUCUCAAUCAACUCUAUUUCCAGGGAAAACCCUGGUAUAUUCAACAGCUCGCAGUCAAG”, -0.405.
The same measure for “GGUCACGUCUCAAUCAACUCAUUCCCCAGGGAAAGCCCUGGCAAUCUCAACAGCUCGCAGUCAAG”: -0.0474; for “GGUCACGUCUCAAUCAACUCCUCAGAGGGGGGGAAAACCCCUUUACCCUCAACCUCAACAGCUCGCAGUCAAG”: -0.261; for “GGUCACGUCUCAAUCAACUCUAAAGAGGGGGGGAAAACCCCUUUACCCUCACUCUCAACAGCUCGCAGUCAAG”: -0.625.
The same measure for “GGUCACGUCUCAAUCAACUCCCUAGAGGGGGGGAAAACCCCUUUGCCCUCGUAAUCAACAGCUCGCAGUCAAG”: 0.101; for “GGUCACGUCUCAAUCAACUCCCUCGAGGGGGGGAAAACCCCUUUACCCUCCACAUCAACAGCUCGCAGUCAAG”: -0.339; for “GGUCACGUCUCAAUCAACUCACUAGAGGGGGGGAAAACCCCUUUGCCCUCAAAAUCAACAGCUCGCAGUCAAG”: -0.191.
With “GGUCACGUCUCAAUCAACUCAUCUUCAGGAGUUUCCUCCUGUAAACUCAACAGCUCGCAGUCAAG”, the binding signal (log2 fold change) stood at 0.23.
As for “GGUCACGUCUCAAUCAACUCUUUAGAGGGGGGGAAAACCCCUUUACCCUCGUCAUCAACAGCUCGCAGUCAAG”, the binding signal (log2 fold change) was -0.285.
Take “GGUCACGUCUCAAUCAACUCUAUCUCCAGGGAAAUCCCUGGUUUACUCAACAGCUCGCAGUCAAG”: the binding signal (log2 fold change) was -0.0408.
On to “GGUCACGUCUCAAUCAACUCAAACGAGGGGGGGAAAACCCCUUUACCCUCAUACUCAACAGCUCGCAGUCAAG”, for which the binding signal (log2 fold change) was determined as 0.0543.
Take “GGUCACGUCUCAAUCAACUCAAUCGAGGGGGGGAAAACCCCUUUACCCUCAUUUUCAACAGCUCGCAGUCAAG”: the binding signal (log2 fold change) was -0.0897.
For “GGUCACGUCUCAAUCAACUCUACUUCCAGGGAAAACCCUGGCAAAUUCAACAGCUCGCAGUCAAG” the value was -0.0213; for “GGUCACGUCUCAAUCAACUCUCUAGAGGGGGGGAAAACCCCUUUGCCCUCACUAUCAACAGCUCGCAGUCAAG”, 0.386.
On to “GGUCACGUCUCAAUCAACUCUAGUCCCAGGGAAACCCCUGGCUUUUUCAACAGCUCGCAGUCAAG”, for which the binding signal (log2 fold change) is 0.0031.
As for “GGUCACGUCUCAAUCAACUCCUUAGAGGGGGGGAAAACCCCUUUACCCUCACUUUCAACAGCUCGCAGUCAAG”, the binding signal (log2 fold change) is -0.247.
With “GGUCACGUCUCAAUCAACUCAACUCCAGGAGUUUGCUCCUGCAUAUUCAACAGCUCGCAGUCAAG”, the binding signal (log2 fold change) was 0.226.
Regarding “GGUCACGUCUCAAUCAACUCCCCAGAGGGGGGGAAAACCCCUUUACCCUCCUAUUCAACAGCUCGCAGUCAAG”, the binding signal (log2 fold change) is 0.0854.
Turning to “GGUCACGUCUCAAUCAACUCAACUCCCAGGGAAAUCCCUGGCUAACUCAACAGCUCGCAGUCAAG”, the binding signal (log2 fold change) stood at 0.00474.
On to “GGUCACGUCUCAAUCAACUCAACUCCAGGAGUUUACUCCUGUUAAUUCAACAGCUCGCAGUCAAG”, for which the binding signal (log2 fold change) was 0.0799.
On to “GGUCACGUCUCAAUCAACUCCCCAGAGGGGGGGAAAACCCCUUUACCCUCAACAUCAACAGCUCGCAGUCAAG”, for which the binding signal (log2 fold change) is -0.359.
The same measure for “GGUCACGUCUCAAUCAACUCAAUCUCAGGAGUUUUCUCCUGUUAAUUCAACAGCUCGCAGUCAAG”: 0.179.
As for “GGUCACGUCUCAAUCAACUCUAUUUCCAGGGAAAGCCCUGGCUUAUUCAACAGCUCGCAGUCAAG”, the binding signal (log2 fold change) is -0.203.
For “GGUCACGUCUCAAUCAACUCUUCUCCAGGAGUUUUCUCCUGCUAUUUCAACAGCUCGCAGUCAAG”, the binding signal (log2 fold change) is -0.113.
For “GGUCACGUCUCAAUCAACUCUUUCCCAGGAGUUUACUCCUGUUAUCUCAACAGCUCGCAGUCAAG” the value was 0.0112; for “GGUCACGUCUCAAUCAACUCUUCUCCCAGGGAAAGCCCUGGUUAUGUCAACAGCUCGCAGUCAAG”, -0.16; for “GGUCACGUCUCAAUCAACUCAUUUCCCAGGGAAAGCCCUGGUAAUCUCAACAGCUCGCAGUCAAG”, 0.334.
The same measure for “GGUCACGUCUCAAUCAACUCUACUCCCAGGGAAAACCCUGGUAAACUCAACAGCUCGCAGUCAAG”: 0.0113.
Consider “GGUCACGUCUCAAUCAACUCAUCUCCCAGGGAAACCCCUGGUUAAUUCAACAGCUCGCAGUCAAG”, for which the binding signal (log2 fold change) was 0.0981.
“GGUCACGUCUCAAUCAACUCAUCAGAGGGGGGGAAAACCCCUUUACCCUCACUAUCAACAGCUCGCAGUCAAG”: the binding signal (log2 fold change) is -0.0805.
In the case of “GGUCACGUCUCAAUCAACUCAACUUCAGGAGUUUUCUCCUGUAUAUUCAACAGCUCGCAGUCAAG”, the binding signal (log2 fold change) was 0.0898.
“GGUCACGUCUCAAUCAACUCCUAAGAGGGGGGGAAAACCCCUUUACCCUCAAUCUCAACAGCUCGCAGUCAAG”: the binding signal (log2 fold change) was 0.429.
The same measure for “GGUCACGUCUCAAUCAACUCAUCUCCAGGAGUUUCCUCCUGUAUUCUCAACAGCUCGCAGUCAAG”: -0.0258; for “GGUCACGUCUCAAUCAACUCCCAAAGGCUUUUCUUAGAGCCACCCAUCAACAGCUCGCAGUCAAG”: 0.496.
With “GGUCACGUCUCAAUCAACUCACUAGAGGGGGGGAAAACCCCUUUGCCCUCAUACUCAACAGCUCGCAGUCAAG”, the binding signal (log2 fold change) was 0.37.
On to “GGUCACGUCUCAAUCAACUCUUCUCCCAGGGAAAACCCUGGUUAACUCAACAGCUCGCAGUCAAG”, for which the binding signal (log2 fold change) was determined as 0.135.
As for “GGUCACGUCUCAAUCAACUCAAUUCCAGGAGUUUUCUCCUGUUUACUCAACAGCUCGCAGUCAAG”, the binding signal (log2 fold change) came to 0.0544.
For the sequence “GGUCACGUCUCAAUCAACUCAUCUUCCAGGGAAACCCCUGGCAAUUUCAACAGCUCGCAGUCAAG”, the binding signal (log2 fold change) amounted to 0.00517.
For the sequence “GGUCACGUCUCAAUCAACUCAAUCUCCAGGGAAAGCCCUGGCUAAUUCAACAGCUCGCAGUCAAG”, the binding signal (log2 fold change) is -0.0101.
Consider “GGUCACGUCUCAAUCAACUCAUCUUCAGGAGUUUGCUCCUGCAUAUUCAACAGCUCGCAGUCAAG”, for which the binding signal (log2 fold change) is -0.0242.
On to “GGUCACGUCUCAAUCAACUCUUUCCCAGGAGUUUACUCCUGUUUACUCAACAGCUCGCAGUCAAG”, for which the binding signal (log2 fold change) was -0.0102.
For “GGUCACGUCUCAAUCAACUCUUUCCCAGGAGUUUUCUCCUGUUUUUUCAACAGCUCGCAGUCAAG” the value was 0.117; for “GGUCACGUCUCAAUCAACUCUUCUUCCAGGGAAAGCCCUGGCUUUUUCAACAGCUCGCAGUCAAG”, -0.352; for “GGUCACGUCUCAAUCAACUCAUCGCCAGGAGUUUACUCCUGCAAAUUCAACAGCUCGCAGUCAAG”, 0.281.
For “GGUCACGUCUCAAUCAACUCAAUCUCCAGGGAAAUCCCUGGUAAUCUCAACAGCUCGCAGUCAAG”, the binding signal (log2 fold change) was -0.113.
The same measure for “GGUCACGUCUCAAUCAACUCAAUUCCAGGAGUUUGCUCCUGCUUACUCAACAGCUCGCAGUCAAG”: -0.0245; for “GGUCACGUCUCAAUCAACUCUAUCUCAGGAGUUUCCUCCUGCUUACUCAACAGCUCGCAGUCAAG”: 0.115; for “GGUCACGUCUCAAUCAACUCACACGAGGGGGGGAAAACCCCUUUACCCUCACCAUCAACAGCUCGCAGUCAAG”: -0.161.
Regarding “GGUCACGUCUCAAUCAACUCAUUCCCAGGAGUUUACUCCUGUUAUUUCAACAGCUCGCAGUCAAG”, the binding signal (log2 fold change) was -0.0683.
With “GGUCACGUCUCAAUCAACUCUAUCUCAGGAGUUUCCUCCUGCAAUCUCAACAGCUCGCAGUCAAG”, the binding signal (log2 fold change) is 0.082.
Consider “GGUCACGUCUCAAUCAACUCAACUUCCAGGGAAAGCCCUGGCGUAUUCAACAGCUCGCAGUCAAG”, for which the binding signal (log2 fold change) came out at 0.0429.
“GGUCACGUCUCAAUCAACUCCUCUGAGGGGGGGAAAACCCCUUUACCCUCUACAUCAACAGCUCGCAGUCAAG”: the binding signal (log2 fold change) is -0.178.
Turning to “GGUCACGUCUCAAUCAACUCUCUAGAGGGGGGGAAAACCCCUUUACCCUCACUCUCAACAGCUCGCAGUCAAG”, the binding signal (log2 fold change) was -0.265.
The same measure for “GGUCACGUCUCAAUCAACUCAAUCGCAGGAGUUUACUCCUGGUUAUUCAACAGCUCGCAGUCAAG”: -0.0429; for “GGUCACGUCUCAAUCAACUCAAUUCCAGGAGUUUUCUCCUGCUAACUCAACAGCUCGCAGUCAAG”: 0.0655; for “GGUCACGUCUCAAUCAACUCUACUCCAGGAGUUUUCUCCUGUAUUCUCAACAGCUCGCAGUCAAG”: -0.232.
The same measure for “GGUCACGUCUCAAUCAACUCUACUUCCAGGGAAAACCCUGGCAUACUCAACAGCUCGCAGUCAAG”: 0.104; for “GGUCACGUCUCAAUCAACUCAAUCUCCAGGGAAAGCCCUGGUUAACUCAACAGCUCGCAGUCAAG”: 0.178.
For “GGUCACGUCUCAAUCAACUCAUUCUCCAGGGAAAACCCUGGUUUACUCAACAGCUCGCAGUCAAG”, the binding signal (log2 fold change) is -0.0116.
